Laboratory results from PubChem BioAssay AID504332 (National Center for Advancing Translational Sciences (NCATS), 2011).
Hit rate of the full screen: of about 350,000 compounds, about 31,000 (8.9%) were called active. Inconclusive means that the source gave no clear call. Such entries were picked first, then a sample of the others. Calls come from the whole dose curve; as a rule, active = well fitted inhibition curve with a large enough effect; inconclusive = small, poorly fitted or top-dose-only effect; inactive = no such curve, though single readings can be large or run the other way. Where the call is inconclusive, the potency comes from a doubtful curve fit.

These compounds were tested against Histone-lysine N-methyltransferase EHMT2 (Homo sapiens) (UniProt Q96KQ7) (assay: qHTS Assay for Inhibitors of Histone Lysine Methyltransferase G9a). Conditions: G9a H3K9 monomethylation, AlphaScreen, 2 h; activity, negative = inhibition: at 59 µM (top of the series) unless noted.
Method in brief: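 G9a (20 nM) was preincubated 15 min with compound, then reacted 2 h at room temperature with 500 nM biotin-H3K9 peptide and 20 µM SAM. Monomethyl-H3K9 detected by AlphaScreen using anti-H3K9me1 antibody.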
% is set by controls: 0 for no effect and ±100 for the full control effect; potency is the fitted concentration of half-maximal effect; tags give direction and shape of the fitted curve.
Note: nearly all actives have a fitted effect of over 75% in size.

Chain of UniProt Q96KQ7 (Q96KQ7 whole entry, looked up): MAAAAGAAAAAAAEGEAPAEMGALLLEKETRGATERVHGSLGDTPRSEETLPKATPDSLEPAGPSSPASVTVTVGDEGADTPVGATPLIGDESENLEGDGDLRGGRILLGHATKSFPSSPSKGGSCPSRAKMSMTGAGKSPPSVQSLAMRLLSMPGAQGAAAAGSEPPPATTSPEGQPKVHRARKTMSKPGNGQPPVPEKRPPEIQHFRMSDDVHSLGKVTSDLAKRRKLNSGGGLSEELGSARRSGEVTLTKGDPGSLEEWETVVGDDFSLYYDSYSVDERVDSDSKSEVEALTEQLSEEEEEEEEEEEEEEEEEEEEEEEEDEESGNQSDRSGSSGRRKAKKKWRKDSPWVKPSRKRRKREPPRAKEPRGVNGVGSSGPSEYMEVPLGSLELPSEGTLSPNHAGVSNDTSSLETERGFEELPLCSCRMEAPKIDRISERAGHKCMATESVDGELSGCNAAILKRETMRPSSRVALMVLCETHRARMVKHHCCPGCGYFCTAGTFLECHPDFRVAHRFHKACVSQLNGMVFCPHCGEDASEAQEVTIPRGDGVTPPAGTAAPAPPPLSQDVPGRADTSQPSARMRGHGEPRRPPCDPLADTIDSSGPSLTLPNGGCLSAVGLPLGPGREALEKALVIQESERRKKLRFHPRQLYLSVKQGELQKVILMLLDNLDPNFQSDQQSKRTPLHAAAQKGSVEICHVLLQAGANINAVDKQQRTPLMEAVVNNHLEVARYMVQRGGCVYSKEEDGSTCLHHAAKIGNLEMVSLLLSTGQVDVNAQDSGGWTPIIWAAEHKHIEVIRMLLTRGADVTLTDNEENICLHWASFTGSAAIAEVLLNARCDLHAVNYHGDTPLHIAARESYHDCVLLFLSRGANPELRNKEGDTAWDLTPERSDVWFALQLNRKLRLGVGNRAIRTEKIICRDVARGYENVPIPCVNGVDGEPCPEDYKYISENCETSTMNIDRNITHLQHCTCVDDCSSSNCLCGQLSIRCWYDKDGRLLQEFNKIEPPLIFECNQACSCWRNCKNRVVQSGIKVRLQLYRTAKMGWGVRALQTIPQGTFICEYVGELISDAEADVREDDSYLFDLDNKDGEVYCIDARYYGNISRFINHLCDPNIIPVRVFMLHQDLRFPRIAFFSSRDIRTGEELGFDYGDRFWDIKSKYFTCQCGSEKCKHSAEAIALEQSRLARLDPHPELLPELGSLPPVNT

Row | SMILES | Potency | activity, negative = inhibition
1 | COc1ccc(CC(CC(=O)O)C(=O)NCc2ccccc2)cc1 (centres undefined) | active: 56.2 µM | –
2 | COc1cc(-c2cc3n(C)c(C)c(CCC(=O)NC4CCC(C)CC4)c(=O)n3n2)cc(OC)c1OC (centres undefined) | – | inactive: 3.02%
3 | CCN1C(=O)/C(=C/c2ccc(N3CCCC3)cc2)NC1=S | active: 3.16 µM | –
4 | CC(C)(C)C1CCC(=NNC(=O)CC(=O)NCc2ccccc2)CC1 (centres undefined) | inconclusive: 89.1 µM [inhibitor, single point] | –
5 | O=c1[nH]c(=S)[nH]c2sc3c(c12)CCCCCC3 | active: 2.24 µM | –
6 | COc1ccc(Nc2nnc(SCC(=O)NC3CCS(=O)(=O)C3)s2)cc1 (centres undefined) | active: 14.1 µM | –
7 | Cc1ccc(C)c(C(=O)OCC(=O)Nc2cccc(S(=O)(=O)N3CCCCC3)c2)c1 | – | inactive: -15.2%
8 | CCC1(c2ccc(F)cc2)NC(=O)N(CC(=O)Nc2cc(C)on2)C1=O (centres undefined) | – | inactive: 0.198%
9 | COc1cccc(-c2ccc3ncnc(NCCN4CCOCC4)c3c2)c1 | – | inactive: 12.4% [at 0.501 µM]
10 | O=S1(=O)[C@H]2C[C@@H]3C=C[C@@]2(CN1Cc1cccc(F)c1)O3 | – | inactive: 7.03% [at 102 µM]
11 | COc1cc(OC)c(NC(C)C(=O)NCc2ccccc2)cc1Cl (centres undefined) | inconclusive: 39.8 µM [inhibitor, single point] | –
12 | COC(=O)C1(CC2CC(c3ccc(Cl)cc3)=NO2)CCN(C(=O)OC(C)(C)C)CC1 (centres undefined) | – | inactive: -8.94% [at 2.33 µM]
13 | CCOC(=O)C1=C(CN2CCN(c3ccc(Cl)cc3)CC2)NC(=O)NC1c1ccc(F)cc1 (centres undefined) | – | inactive: -6.08%
14 | Cc1ccc(C(=O)NC(=S)NCc2ccccc2)cc1 | inconclusive: 44.7 µM [inhibitor, single point] | –
15 | NS(=O)(=O)c1ccc(NCc2ccccc2OCc2ccc(F)cc2)cc1 | inconclusive: 39.8 µM [inhibitor, single point] | –
16 | O=C(NNC1=NS(=O)(=O)c2ccccc21)c1ccccc1Cl | inconclusive: 89.1 µM [inhibitor, single point] | –
17 | CNS(=O)(=O)c1cc(Cl)ccc1Sc1ccccc1C(=O)O | inconclusive: 50.1 µM [inhibitor, partial curve] | –
18 | Cc1ccc(-c2csc3ncn(CC#N)c(=O)c23)cc1C | inconclusive: 56.2 µM [inhibitor, single point] | –
19 | COc1cc([N+](=O)[O-])ccc1NC(=O)CCCOc1cccc(C)c1C | – | inconclusive: -57% [inhibitor]
20 | COCC(=O)N1CCC2(CCN(Cc3ccncc3)CC2)CC1 | – | inactive: -5.14% [at 12.7 µM]
21 | COc1ccc(OC)c(Nc2nc(-c3sc(NC(=O)C(C)(C)C)nc3C)cs2)c1 | inconclusive: 22.4 µM [inhibitor, single point] | –
22 | COc1cc2c(cc1OC)CN(S(=O)(=O)c1cccs1)CC2 | inconclusive: 100 µM [inhibitor, single point] | –

Row | SMILES | Potency | activity, negative = inhibition
23 | COC(=O)c1ccc(C2/C(=C(\O)c3ccc4c(c3)OCCO4)C(=O)C(=O)N2CCCN(C)C)cc1 (centres undefined) | inconclusive: 89.1 µM [inhibitor, single point] | –
24 | COc1nc(OC)nc(N2CCC(NC(=O)C(Cc3ccc(C(C)C)cc3)NC(C)=O)CC2)n1 (centres undefined) | inconclusive: 3.55 µM [inhibitor, full curve, poor fit] | –
25 | CC(C)(C)c1ccc(Cn2nnc3c(=O)[nH]c(C4CCN(C(=O)c5ccco5)CC4)nc32)cc1 | inconclusive: 89.1 µM [inhibitor, single point] | –
26 | Nc1scc2c(C(=O)N/N=C/c3ccc(Cl)cc3)nn(-c3ccccc3)c(=O)c12 | inconclusive: 0.891 µM [inhibitor, full curve, poor fit] | –
27 | Cn1c(=O)n(C)c2cc(NS(=O)(=O)c3ccc(Cl)cc3)c(NCc3ccccc3)cc21 | active: 15.8 µM | –
28 | CCOC(=O)c1cc(-c2ccco2)nc2c1c(C)nn2CCC#N | active: 11.2 µM | –
29 | CC(=O)/C(=N/Nc1ccccc1)Sc1nnc(C(O)c2ccccc2)n1-c1ccccc1 (centres undefined) | active: 44.7 µM | –
30 | C=CCn1c(=O)c2c(nc3n2CC(C)CN3Cc2ccccc2)n(C)c1=O (centres undefined) | inconclusive: 79.4 µM [inhibitor, single point] | –
31 | O=C(Cc1ccc(Cl)cc1)NCc1ccccc1Cl | – | inactive: -2.23% [at 102 µM]
32 | O=C(Nc1ccc(OC(F)F)cc1)c1cc(S(=O)(=O)N2CCCCC2)ccc1N1CCOCC1 | active: 15.8 µM | –
33 | CN1CCN(C(=S)C(=O)Nc2ccc(Br)cc2)CC1 | active: 2.51 µM | –
34 | CC1(c2nnc(-c3ccc(F)cc3)o2)CC(c2cccc(Cl)c2)=NO1 (centres undefined) | – | inconclusive: -119% [inhibitor] [at 12.7 µM]
35 | CC(C)CNC(=O)CC(c1ccccc1)c1c(O)ccc2ccccc12 (centres undefined) | inconclusive: 6.31 µM [inhibitor, single point] | –
36 | COc1ccc(-n2nc3c(N4CCCC(C(=O)NCc5ccccc5C)C4)nnc(C)c3c2C)cc1 (centres undefined) | inconclusive: 4.47 µM [inhibitor, full curve, poor fit] | –
37 | COCCNc1oc(-c2ccco2)nc1S(=O)(=O)c1ccccc1 | inconclusive: 89.1 µM [inhibitor, single point] | –
38 | CC(=O)[C@@H]1[C@@H](C(=O)c2ccc(C)cc2)[C@]2(C(=O)Nc3ccccc32)[C@H]2C=Cc3cc(F)ccc3N12 | inconclusive: 25.1 µM [inhibitor, partial curve, poor fit] | –
39 | COc1ccc(C(=O)C2CCCN(C(=O)c3ccc(CSC)o3)C2)cc1F (centres undefined) | active: 31.6 µM | –
40 | Cc1ccc2nc(-c3ccc(N4CCOCC4)cc3)c(Nc3ccccc3C)n2c1 | active: 12.6 µM | –
41 | Cc1oc(-c2ccc(Cl)cc2)nc1CN1CCCC(C(=O)NCc2cccnc2)C1 (centres undefined) | – | inconclusive: -62.7% [inhibitor] [at 102 µM]
42 | CCOc1ccc(NC(=O)COc2ccccc2)c([N+](=O)[O-])c1 | inconclusive: 50.1 µM [inhibitor, partial curve] | –
43 | O=C(NC1CCN(Cc2ccccc2)CC1)C(NS(=O)(=O)c1cccc2nsnc12)c1ccccc1 (centres undefined) | inconclusive: 79.4 µM [inhibitor, partial curve, poor fit] | –
44 | Cc1ccc(-n2ncc(C(=O)NCCN3CCc4ccccc4C3)c2C2CCN(C(=O)OC(C)(C)C)CC2)c(C)c1 | inconclusive: 10 µM [inhibitor, partial curve, poor fit] | –

Row | SMILES | Potency | activity, negative = inhibition
45 | CC(C(=O)Nc1ccc(Cl)cc1)N1C(=O)NC2(CCCC2)C1=O (centres undefined) | inconclusive: 89.1 µM [inhibitor, single point] | –
46 | CCCCCCn1c(CN2CCN(C(=O)c3ccco3)CC2)nc2c1c(=O)n(C)c(=O)n2C | inconclusive: 39.8 µM [inhibitor, single point] | –
47 | Cc1ccc(S(=O)(=O)Nc2cc(C(=O)NCCN(C)C)ccc2N2CCCC2)cc1 | inconclusive: 79.4 µM [inhibitor, single point] | –
48 | CC(NC(=O)CN1C(=O)NC(C)(c2cccc3ccccc23)C1=O)c1ccccc1 (centres undefined) | inconclusive: 25.1 µM [inhibitor, single point] | –
49 | COc1ccc(-c2nnc(SCC(=O)c3cccs3)n2-c2ccc(Cl)cc2)cc1 | inconclusive: 89.1 µM [inhibitor, single point] | –
50 | CCN(C(=O)COC(=O)CSc1ccccc1)c1c(N)n(Cc2ccccc2)c(=O)[nH]c1=O | inconclusive: 63.1 µM [inhibitor, partial curve, poor fit] | –
51 | O=C(/C(C=Nc1cccc(C(F)(F)F)c1)=C(/O)c1ccco1)C(F)(F)F | inconclusive: 7.94 µM [inhibitor, full curve] | –
52 | C#CCOCCOCCOCCNc1nc(N2CCN(C(=O)[C@H]([C@@H](C)CC)n3cc([C@@H](N)Cc4ccc(O)cc4)nn3)CC2)nc(N2CCN(C(=O)[C@H](Cc3ccc(O)cc3)n3cc([C@@H](N)CC(C)C)nn3)CC2)n1 | – | inconclusive: -65.7% [inhibitor]
53 | CCCn1c(SCC(=O)Nc2cccc(C)n2)nnc1-c1ccco1 | inconclusive: 79.4 µM [inhibitor, partial curve, poor fit] | –
54 | COc1cc(NC(=O)c2cc([N+](=O)[O-])ccc2NC(=O)CNC2CCCCC2C)cc(OC)c1 (centres undefined) | inconclusive: 50.1 µM [inhibitor, partial curve, poor fit] | –
55 | COc1ccc(NC(=O)CN(C)C(=O)c2ccccc2OC)cc1 | – | inactive: -2.77% [at 102 µM]
56 | Cc1ccc(CNC(=O)CSc2nc3ccsc3c(=O)n2Cc2ccccn2)cc1 | inconclusive: 89.1 µM [inhibitor, partial curve, poor fit] | –
57 | COc1ccc(C(=O)c2cc3c(cc2[N+](=O)[O-])OCCO3)cc1 | inconclusive: 39.8 µM [inhibitor, partial curve, poor fit] | –
58 | O=C(O)CN1C(=O)/C(=C\c2cc(Br)ccc2OCc2ccc(Cl)cc2)SC1=S | active: 14.1 µM | –
59 | CN(c1nnc(NC(=O)Nc2ccc(Br)cc2)s1)C1CCCCC1 | inconclusive: 35.5 µM [inhibitor, partial curve, poor fit] | –
60 | COc1cc(/C=C2\COC/C(=C\c3cc(OC)c(OC)c(OC)c3)C2=O)cc(OC)c1OC | inconclusive: 4.47 µM [inhibitor, full curve] | –
61 | Cc1[nH]c2ccccc2c1C1(O)C(=O)N(Cc2ccccc2)c2ccc(Br)cc21 (centres undefined) | inconclusive: 31.6 µM [inhibitor, single point] | –
62 | Cc1ccc(NC(=S)NNC(=S)NC2CCCCC2)cc1 | inconclusive: 2.24 µM [inhibitor, partial curve, poor fit] | –
63 | Nc1ccn([C@@H]2CC[C@H](CO)O2)c(=O)n1 | – | inactive: 31% [at 21.5 µM]
64 | COC(=O)C(NNc1ccccc1)(NC(=O)c1ccc(F)cc1)C(F)(F)F (centres undefined) | active: 35.5 µM | –
